PMC6919601, “Identification of Plasmodium dipeptidyl aminopeptidase allosteric inhibitors by high throughput screening” (PLoS ONE, 2019)
Screen size: about 110,000 compounds; about 230 (0.21%) showed an effect of 50% or more. The list shows a part of the results.

Target: DPAP1 (Plasmodium falciparum, UniProt Q8IIJ9)
Assay: primary screen, percent inhibition; read by cleavage of a fluorogenic dipeptide substrate; higher = more effect of the substance
Parameters: species or system P. falciparum D10 trophozoite lysates; single well
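Further: 30 min substrate incubation versus DMSO and 10 µM JCP410 controls.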

Chain of DPAP1 (Q8IIJ9 whole entry, looked up): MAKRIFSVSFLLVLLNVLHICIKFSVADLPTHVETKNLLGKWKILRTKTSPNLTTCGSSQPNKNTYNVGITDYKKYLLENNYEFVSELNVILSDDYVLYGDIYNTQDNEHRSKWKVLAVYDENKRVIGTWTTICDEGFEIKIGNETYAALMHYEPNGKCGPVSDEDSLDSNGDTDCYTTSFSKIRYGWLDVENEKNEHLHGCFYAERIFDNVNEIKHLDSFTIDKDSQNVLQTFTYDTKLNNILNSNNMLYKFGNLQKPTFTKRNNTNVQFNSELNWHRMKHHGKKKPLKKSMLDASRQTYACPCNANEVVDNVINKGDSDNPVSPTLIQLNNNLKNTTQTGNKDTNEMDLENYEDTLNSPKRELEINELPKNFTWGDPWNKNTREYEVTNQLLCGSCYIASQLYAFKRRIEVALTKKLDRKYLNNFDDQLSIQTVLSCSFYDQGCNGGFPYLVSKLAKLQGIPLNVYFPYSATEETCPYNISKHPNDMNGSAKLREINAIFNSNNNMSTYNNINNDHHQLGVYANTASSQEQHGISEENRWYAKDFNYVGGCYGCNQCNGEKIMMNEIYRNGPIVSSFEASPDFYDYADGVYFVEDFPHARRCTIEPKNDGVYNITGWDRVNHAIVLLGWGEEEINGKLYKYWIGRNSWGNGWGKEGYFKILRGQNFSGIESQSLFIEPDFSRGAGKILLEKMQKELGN

| SMILES | % Inhibition @ 10 uM |
| --- | --- |
| Cc1ccc(S(=O)(=O)c2nnn3c2nc(NCc2cccs2)c2ccccc23)cc1 | 11.3% |
| CCCC[C@H](NC(=O)[C@H](CC(C)C)NC(=O)OCc1ccccc1)C1=NNC(=O)C1 | 1.35% |
| COc1ccc(Br)cc1C(=O)Nc1ccc2c(c1)C(=O)N(CC(C)C)C2=O | -12.3% |
| CC1=[N+]([O-])C(C)(c2ccc(Cl)cc2)[N+]([O-])=C1c1ccccc1 (stereo not drawn) | 1.63% |
| N#C/C(=C/c1cccc(Cl)c1)c1nc(-c2ccc(Cl)cc2)cs1 | -2.32% |
| COc1ccc(OC)c(NC(=O)c2ccccn2)c1 | 3.04% |
| COc1ccc(C2(C(=O)Nc3ccccc3)CCOCC2)cc1 | -9.12% |
| CCC(NC(=O)OC)C12CC3CC(CC(C3)C1)C2 (stereo not drawn) | 5.52% |
| COc1ccc(CNc2nc3c(c(=O)n(C)c(=O)n3C)n2Cc2ccc(OC)cc2)cc1 | 3.35% |
| Clc1ccc(N2CCN(C3C4CC5CC(C4)CC3C5)CC2)cc1 (stereo not drawn) | -2.18% |
| COc1c2occc2c(OC)c2c(=O)cc(C(=O)O)oc12 | -1.29% |
| COc1cccc(-c2nc(S)c3c(n2)Oc2c(cccc2OC)C3)c1O | -0.246% |
| CC(Oc1ccc2oc(-c3ccccc3)c(C(=O)O)c2c1)C(=O)O (stereo not drawn) | 1.37% |
| CC1(NC(=S)N(CCO)CCO)CCS(=O)(=O)C1 (stereo not drawn) | -6.44% |
| c1ccc(CNc2cccc3nonc23)cc1 | 0.751% |
| CCC1CCc2c(sc(NC(=O)c3cccnc3Cl)c2C(N)=O)C1 (stereo not drawn) | 2.7% |
| Cc1cccn2c(=O)c3cc(C(=O)NCCCn4ccnc4)n(C)c3nc12 | 3.92% |
| NS(=O)(=O)c1ccc(-n2cccc2C=O)cc1 | 0.685% |
| COc1ccc(C2C(C#N)=C(N)Oc3cc(C)oc(=O)c32)c(C)c1C (stereo not drawn) | -4.94% |
| O=S(=O)(c1ccc2c(c1)OCCO2)N1CCCCCC1 | -11.2% |
| O=C(NCC1CCCO1)c1nc(-c2ccc(-n3cccc3)cc2)no1 (stereo not drawn) | 3.66% |
| CCOC(=O)c1c(-c2ccccc2)oc2cc(Br)c(O)cc12 | 3.04% |
| CCOC(=O)N1CCN(C(=O)c2cnc3ccc(S(=O)(=O)N(CC)CC)cc3c2O)CC1 | -4.06% |
| Cc1nc(N2CCCCCC2)c2cc(-c3ccccc3)sc2n1 | -1.6% |
| O=C(Nc1ccc(F)cc1F)c1ccc([N+](=O)[O-])cc1 | -1.48% |

| SMILES | % Inhibition @ 10 uM |
| --- | --- |
| O=C(C1CCCN(c2cnnc3c(Cl)cccc23)C1)N1CCCC1 (stereo not drawn) | -0.631% |
| CSc1nc2c(c(=O)n1C)C(C)(C)Cc1ccccc1-2 | -1.2% |
| S=C(NC12CC3CC(CC(C3)C1)C2)NC12CC3CC(CC(C3)C1)C2 | -0.274% |
| COc1ccccc1CNC(=O)c1cc(S(=O)(=O)N2CCOCC2)ccc1F | -3.78% |
| Cc1ccc2nc(NC(=O)c3nc(SC(C)C)ncc3Cl)sc2c1 | 2.41% |
| COCc1cc(C)nc(SCc2nc(O)c3ccccc3n2)c1C#N | 4.58% |
| COc1ccc(S(=O)(=O)N(C)CC(=O)NCC2CCCO2)cc1 (stereo not drawn) | -3.53% |
| O=C(Nc1ccncc1)c1cc(-c2ccc(Cl)s2)nc2ccccc12 | -0.68% |
| COc1ccccc1OCCCC(=O)Nc1ccccc1C(C)C | -3.92% |
| O=C(NCc1ccccn1)c1nnc(-c2cccnc2)o1 | 3% |
| Cc1ccc(NS(=O)(=O)c2ccccc2)nc1 | -2.81% |
| Fc1cccc(Cl)c1CN1CCN(c2ccccc2)CC1 | 1.08% |
| O=C(c1ccc(CS(=O)(=O)c2ccc(Br)cc2)o1)N1CCN(c2ccccn2)CC1 | -1.28% |
| O=C(CN1C(=O)C2C3c4ccccc4C(c4ccccc43)C2C1=O)Nc1cccc(Cl)c1 (stereo not drawn) | 2.08% |
| Cc1cccn2c(=O)c3cc(C(=O)NC(C)c4ccccc4)n(C)c3nc12 (stereo not drawn) | -1.56% |
| CC1Cc2nc(SCC(=O)N3CCOCC3)n(CCc3ccccc3)c(=O)c2S1 (stereo not drawn) | 4.23% |
| Cn1c2c(c(=O)n(C)c1=O)C(NC(=O)COc1ccccc1)(C(F)(F)F)C(=O)N2 (stereo not drawn) | 0.189% |
| CCC(=O)N1c2ccccc2N=C2CC(C)(C)CC(O)=C2C1c1ccc(OC)c(OC)c1 (stereo not drawn) | 2.69% |
| Cc1nnc(NC(=O)CSc2nnc(CNC(=O)COc3ccc(Cl)cc3)o2)s1 | -5.27% |
| O=C(Nc1ccc(C(=O)N2CCOCC2)cc1)c1cnn2c(C(F)F)cc(-c3ccccc3)nc12 | 0.35% |
| COc1ccc(-c2nnc(SCc3csc(C)n3)o2)cc1OC | 1.84% |
| Cc1csc2nc(=O)c3c4c(sc3n12)CCCC4 | 5.63% |
| O=C(COc1ccc(Cl)cc1Cl)Nc1ccccc1C(F)(F)F | -2.6% |
| CCCCC12CN3CC(C)(CN(C1)C3c1ccccc1Cl)C2=O (stereo not drawn) | 0.00706% |
| Cc1cccc(OCCCCc2c(C)n[nH]c2C)c1 | -0.351% |

| SMILES | % Inhibition @ 10 uM |
| --- | --- |
| CCC(C)NC(=O)Cc1c(C)nc2cc(-c3ccccc3)nn2c1C (stereo not drawn) | 0.953% |
| CCS(=O)(=O)c1ncc(Cl)c(C(=O)Nc2nnc(SCc3ccccc3Cl)s2)n1 | 1.99% |
| O=C(Nc1ccc(S(=O)(=O)N2CCc3ccccc32)cc1)c1ccc(F)cc1 | -2.8% |
| Cc1ccccc1NS(=O)(=O)c1ccc(Cl)c(C(F)(F)F)c1 | 0.583% |
| O=C(CCSCCC(=O)Nc1ccc(F)c(F)c1)Nc1ccc(F)c(F)c1 | -1.12% |
| CC1CCN(S(=O)(=O)c2ccc3nc(O)oc3c2)CC1 | -3.68% |
| O=C(CSCCc1ccccn1)Nc1cccnc1 | 6.5% |
| Cn1ncc2c(N3CCN(Cc4ccccc4)CC3)ncnc21 | 8.36% |
| O=C(NCCCNC1=NS(=O)(=O)c2ccccc21)c1ccc(S(=O)(=O)N2CCOCC2)cc1 | -2.98% |
| CSc1cccc(NC2CCN(CCc3ccccc3)CC2)c1 | -1.15% |
| CC(C)(Cc1nc2ccccc2[nH]1)C(=O)O | -2.91% |
| O=C(O)C1CC=CCC1C(=O)Nc1ccccc1C(F)(F)F (stereo not drawn) | 4.64% |
| CN(C)CCSc1nc(O)c(-c2ccccc2)c(O)n1 | -1.82% |
| COc1ccccc1C(=O)NCCN1CCCC1 | -2.05% |
| COc1ccc(/C=C2\S/C(=N/c3cccc(C(=O)O)c3)N(C)C2=O)cc1Br | 6.35% |
| CN1C(=O)c2ccccc2C(C(=O)NCc2ccc(F)cc2)C1c1c[nH]c2ccccc12 (stereo not drawn) | 0.559% |
| CCCOc1ccc(C2C(C(=O)OCC)=CN(Cc3ccc(F)cc3)C=C2C(=O)OCC)cc1OC | -3.23% |
| Cc1cc(C)nc(N2N=C(CSc3nnc(C)s3)CC2=O)n1 | 3.93% |
| CCN(CC)S(=O)(=O)c1ccc(NC(=O)COc2ccc3ccccc3c2Br)cc1 | -0.413% |
| CCn1cc(/C=C2\SC(=O)N(CC(=O)Nc3ccc4c(c3)OCO4)C2=O)c2ccccc21 | 0.931% |
| NC(=O)C1CCN(Cc2ccccc2Cl)CC1 | -7.02% |
| Cc1ccc(N2C(=O)CC(NC3CCCCCCC3)C2=O)cc1 (stereo not drawn) | -7.61% |
| O=C(NCCc1ccc(Cl)cc1)c1cnc(N2CCCC2)nc1 | 0.44% |
| O=C(c1ccc(Cn2cc(Cl)cn2)cc1)N1N=C(C(F)F)CC1(O)C(F)F (stereo not drawn) | -3.77% |
| COc1ccc(C2Nc3ccc4ncccc4c3C3=C2C(=O)CCC3)cc1OC (stereo not drawn) | 0.673% |

| SMILES | % Inhibition @ 10 uM |
| --- | --- |
| O=C(O)c1cccc2c1NC(C1CC=CCC1)C1CC=CC21 (stereo not drawn) | 18.8% |
| CCOC(=O)c1cnc2c(-c3ccccc3)c(C)nn2c1C | -7.39% |
| CC(=O)N(C)c1ccc(NC(=O)C(c2ccccc2)c2ccccc2)cc1 | 0.528% |
| CC(=O)c1c(C(C)=O)c(C)n(-c2nc(-c3cccs3)c(C)s2)c1C | 2.46% |
| COc1cccc(C(=O)COc2ccc(NC(=O)c3ccccc3)cc2)c1 | -6.66% |
| Cc1cc(NC(=O)CC23CC4CC(CC(C4)C2)C3)no1 | -1.93% |
| COc1ccc(OCC(O)CNC(C)(C)C)cc1 (stereo not drawn) | -4.06% |
| CC1CCN(C(=O)C2CCN(S(=O)(=O)c3cccnc3)CC2)CC1 | -2.7% |
| COc1ccc(C2CC(C(F)(F)F)n3ncc(C(=O)NCc4ccco4)c3N2)cc1OC (stereo not drawn) | -1.93% |
| CCCCN(CCNC(=O)c1c(C)oc2ncnc(N3CCOCC3)c12)Cc1ccco1 | -3.09% |
| COc1cc(/C=C/c2nc(C#N)c(N3CCOCC3)o2)cc(OC)c1OC | 0.895% |
| CCc1cccc(C)c1NC(=O)CSc1nc2ccccc2[nH]1 | 1.02% |
| O=C(c1ccccc1)c1ccc2nc(NC3CCCC3)c3nncn3c2c1 | 4.56% |
| Cc1ccccc1NC(=O)c1ccccc1C(=O)O | 3.56% |
| COc1cccc(C2C(C(=O)c3ccc(F)cc3)=C(O)C(=O)N2Cc2cccnc2)c1 (stereo not drawn) | 0.755% |
| COc1ccccc1-c1nnc(SCC#CCOC(=O)c2ccc(Cl)cc2)o1 | 3.73% |
| Cc1ccc(S(=O)(=O)Cc2nc(-c3ccc(C(=O)NCCc4ccccc4)cc3)oc2C)cc1 | -3.29% |
| O=C(Nc1cccc2ccccc12)C1CCC(N2C(=O)c3ccccc3C2=O)CC1 (stereo not drawn) | 3.37% |
| COC(=O)C1=CN(CCc2ccccc2)C=C(C(=O)OC)C1c1ccc2c(c1)OCO2 | -10.6% |
| O=C(O)CN1C(=O)c2ccc(C(=O)O)cc2C1=O | 3.06% |
| COc1ccc(C(=O)Cn2c(N3CCN(C)CC3)nc3c2c(=O)n(C)c(=O)n3C)cc1OC | -0.834% |
| CC(C)NC(=O)C(=O)c1c(O)[nH]c2ccccc12 | -6.67% |
| O=C(C(Cc1ccc([N+](=O)[O-])cc1)N1C(=O)c2ccccc2C1=O)N1CCCCC1 (stereo not drawn) | -4.26% |
| Cc1ccccc1N1CCN(CCCCN2C(=O)C3CCCN3C2=O)CC1 (stereo not drawn) | -0.0619% |
